pIC50: −log10 of the molar value. A lower IC50 marks a more sensitive line; fits outside the tested doses are given as limits. For AUC the same curve is integrated over the 256-fold range of doses and scaled to a fraction; values near 1 show little effect. For some of these results: The top dose, if marked as inferred, was calculated from the reported fits. For some of these results: Drugs with an entry number were screened twice under separate entries, and the two screens often disagree.
Legend:
Assay in all cases: Viability of human cancer cell lines after 72 h of drug (GDSC screen)
[1] = compound: COCC[n+]1c2c(n(Cc3cnccn3)c1C)C(=O)c1ccccc1C2=O [YM155]; conditions: top dose 5.12 µM
Method: (§1)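 Human cancer cell lines in 384-well plates, medium with 10% serum, drug for 72 h over a 256-fold dose range (nine 2-fold or five 4-fold steps up to the top dose). Adherent lines were fixed and stained with the nucleic acid dye Syto60, suspension lines read with resazurin; signal relative to control wells, capped at 0 and 100%. One two-parameter sigmoid per drug and line, fitted in a mixed model over all curves with the slope shared within a line.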

[2] = compound: c1ccc2c(CCNc3ccc(Nc4ccncc4)cc3)c[nH]c2c1 [JNJ-26854165]; conditions: top dose 10 µM
Method: as §1

[3] = compound: O=C(/C=C/c1cccc(S(=O)(=O)Nc2ccccc2)c1)NO [Belinostat]; conditions: top dose 20 µM; top dose inferred
Method: as §1

[4] = compound: CCOc1nc(NC(=O)Cc2cc(OC)ccc2OC)cc(N)c1C#N [JNK Inhibitor VIII]; conditions: top dose 10 µM; top dose inferred
Method: as §1

[5] = compound: Cc1ccc(C(=O)N(CCCN)[C@@H](c2nc3cc(Cl)ccc3c(=O)n2Cc2ccccc2)C(C)C)cc1 [SB-715992]; conditions: top dose 0.128 µM; top dose inferred
Method: as §1

[6] = compound: C[C@]1(O)C[C@@H](c2nc(-c3ccc4ccc(-c5ccccc5)nc4c3)c3c(N)nccn32)C1 [OSI-906]; conditions: top dose 2.56 µM; top dose inferred
Method: as §1

[7] = compound: Cc1sc2c(c1C)C(c1ccc(Cl)cc1)=N[C@@H](CC(=O)OC(C)(C)C)c1nnc(C)n1-2 [JQ1]
Method: as §1

[8] = compound: CN1CCN(c2ccc([N+](=O)[O-])c3no[n+]([O-])c23)CC1 [NSC-207895]; conditions: top dose 20 µM; top dose inferred
Method: as §1

[9] = compound: CC1(C)CNc2cc(NC(=O)c3cccnc3NCc3ccncc3)ccc21 [AMG-706]; conditions: top dose 2 µM; top dose inferred
Method: as §1

[10] = compound: CC(=O)O[C@@]12CO[C@@H]1C[C@H](O)[C@@]1(C)C(=O)[C@H](O)C3=C(C)[C@@H](OC(=O)[C@H](O)[C@@H](NC(=O)OC(C)(C)C)c4ccccc4)C[C@@](O)([C@@H](OC(=O)c4ccccc4)[C@H]21)C3(C)C [Docetaxel]; conditions: top dose 0.0125 µM
Method: as §1

[11] = compound: COC(=O)[C@H](CCSC)NC(=O)c1ccc(NC[C@@H](N)CS)cc1-c1ccccc1 [FTI-277]; conditions: top dose 1.024 µM; top dose inferred
Method: as §1

[12] = top dose 1 µM, screen: GDSC drug entry 1218, top dose inferred
[13] = top dose 2.56 µM, screen: GDSC drug entry 163

Cell Line | AUC [1] | pIC50 [1] | AUC [2] | pIC50 [2] | AUC [3] | pIC50 [3] | AUC [4] | pIC50 [4] | AUC [5] | pIC50 [5] | AUC [6] | pIC50 [6] | AUC [7, 12] | pIC50 [7, 12] | AUC [7, 13] | pIC50 [7, 13] | AUC [8] | pIC50 [8] | AUC [9] | pIC50 [9] | AUC [10] | pIC50 [10] | AUC [11] | pIC50 [11]
COLO-205 (large intestine, suspension) | 0.078 | > 7.70 | 0.966 | < 5.00 | 0.462 | 6.01 | 0.987 | < 5.00 | 0.692 | 7.56 | 0.412 | 7.04 | 0.82 | 6.25 | 0.46 | 6.90 | 0.98 | < 4.70 | 0.987 | < 5.70 | 0.932 | < 7.90 | 0.977 | < 5.99
HN (head and neck, adherent) | 0.42 | 6.71 | 0.87 | 5.08 | 0.8 | 5.05 | 0.952 | < 5.00 | 0.989 | < 6.89 | 0.984 | < 5.59 | 0.968 | < 6.00 | 0.894 | < 5.59 | 0.989 | < 4.70 | 0.966 | < 5.70 | 0.544 | 8.99 | 0.989 | < 5.99
TYK-nu (ovary, adherent) | 0.045 | > 7.70 | 0.808 | 5.25 | 0.398 | 6.19 | 0.963 | < 5.00 | 0.969 | < 6.89 | 0.98 | < 5.59 | 0.971 | < 6.00 | 0.85 | 5.67 | 0.952 | < 4.70 | 0.975 | < 5.70 | 0.709 | 8.49 | 0.985 | < 5.99
DAN-G (pancreas, adherent) | 0.02 | > 7.70 | 0.942 | < 5.00 | 0.496 | 5.91 | 0.976 | < 5.00 | 0.96 | < 6.89 | 0.93 | < 5.59 | 0.991 | < 6.00 | 0.949 | < 5.59 | 0.99 | < 4.70 | 0.992 | < 5.70 | 0.89 | 7.95 | 0.989 | < 5.99
NCI-H1781 (lung adenocarcinoma, adherent) | 0.124 | 7.70 | 0.905 | < 5.00 | 0.688 | 5.38 | 0.989 | < 5.00 | 0.964 | < 6.89 | 0.987 | < 5.59 | 0.988 | < 6.00 | 0.926 | < 5.59 | 0.939 | < 4.70 | 0.98 | < 5.70 | 0.857 | 7.99 | 0.977 | < 5.99
MOG-G-UVW (glioma, adherent) | 0.024 | > 7.70 | 0.876 | 5.02 | 0.313 | 6.42 | 0.965 | < 5.00 | 0.857 | 7.00 | 0.975 | < 5.59 | 0.983 | < 6.00 | 0.662 | 6.35 | 0.892 | < 4.70 | 0.974 | < 5.70 | 0.332 | 9.57 | 0.975 | < 5.99
OV-90 (ovary, adherent) | 0.181 | 7.60 | 0.934 | < 5.00 | 0.686 | 5.32 | 0.98 | < 5.00 | 0.907 | < 6.89 | 0.878 | < 5.59 | 0.975 | < 6.00 | 0.795 | 5.80 | 0.981 | < 4.70 | 0.976 | < 5.70 | 0.813 | 8.03 | 0.965 | < 5.99
RPMI-2650 (head and neck, adherent) | 0.06 | > 7.70 | 0.953 | < 5.00 | 0.342 | 6.36 | 0.961 | < 5.00 | 0.922 | < 6.89 | 0.894 | < 5.59 | 0.956 | < 6.00 | 0.601 | 6.51 | 0.91 | < 4.70 | 0.984 | < 5.70 | 0.698 | 8.53 | 0.894 | < 5.99
NCI-H2291 (lung adenocarcinoma, adherent) | 0.838 | < 5.29 | 0.88 | < 5.00 | 0.974 | < 4.70 | 0.979 | < 5.00 | 0.983 | < 6.89 | 0.984 | < 5.59 | 0.951 | < 6.00 | 0.968 | < 5.59 | 0.982 | < 4.70 | 0.979 | < 5.70 | 0.899 | < 7.90 | 0.983 | < 5.99
H513 (mesothelioma, semi-adherent) | 0.851 | < 5.29 | 0.971 | < 5.00 | 0.956 | < 4.70 | 0.982 | < 5.00 | 0.976 | < 6.89 | 0.983 | < 5.59 | 0.973 | < 6.00 | 0.964 | < 5.59 | 0.985 | < 4.70 | 0.986 | < 5.70 | 0.895 | < 7.90 | 0.95 | < 5.99
HCC38 (breast, adherent) | 0.041 | > 7.70 | 0.876 | < 5.00 | 0.451 | 6.04 | 0.982 | < 5.00 | 0.904 | < 6.89 | 0.972 | < 5.59 | 0.984 | < 6.00 | 0.572 | 6.59 | 0.924 | < 4.70 | 0.986 | < 5.70 | 0.824 | 8.08 | 0.962 | < 5.99
SW1710 (bladder, adherent) | 0.049 | > 7.70 | 0.849 | 5.11 | 0.436 | 6.08 | 0.97 | < 5.00 | 0.829 | 7.08 | 0.862 | 5.64 | 0.969 | < 6.00 | 0.355 | 7.20 | 0.853 | 4.79 | 0.981 | < 5.70 | 0.488 | 9.14 | 0.873 | < 5.99
YAPC (pancreas, adherent) | 0.209 | 7.46 | 0.861 | < 5.00 | 0.728 | 5.18 | 0.982 | < 5.00 | 0.973 | < 6.89 | 0.869 | < 5.59 | 0.98 | < 6.00 | 0.903 | < 5.59 | 0.985 | < 4.70 | 0.985 | < 5.70 | 0.818 | 8.03 | 0.979 | < 5.99
Hs633T (fibrosarcoma, adherent) | 0.016 | > 7.70 | 0.845 | 5.27 | 0.278 | 6.47 | 0.977 | < 5.00 | 0.753 | 7.44 | 0.957 | < 5.59 | 0.852 | 6.25 | 0.586 | 6.58 | 0.808 | 5.09 | 0.965 | < 5.70 | 0.739 | 8.49 | 0.954 | < 5.99
647-V (bladder, adherent) | 0.095 | > 7.70 | 0.864 | 5.05 | 0.782 | 5.08 | 0.985 | < 5.00 | 0.96 | < 6.89 | 0.965 | < 5.59 | 0.984 | < 6.00 | 0.614 | 6.48 | 0.729 | 5.25 | 0.987 | < 5.70 | 0.696 | 8.55 | 0.941 | < 5.99
BHT-101 (thyroid, adherent) | 0.241 | 7.26 | 0.915 | < 5.00 | 0.288 | 6.51 | 0.864 | 5.04 | 0.964 | < 6.89 | 0.927 | < 5.59 | 0.977 | < 6.00 | 0.777 | 5.97 | 0.861 | 4.75 | 0.943 | < 5.70 | 0.853 | 7.99 | 0.973 | < 5.99
NCI-H1563 (lung adenocarcinoma, adherent) | 0.475 | 6.57 | 0.942 | < 5.00 | 0.674 | 5.38 | 0.969 | < 5.00 | 0.985 | < 6.89 | 0.958 | < 5.59 | 0.968 | < 6.00 | 0.974 | < 5.59 | 0.973 | < 4.70 | 0.902 | < 5.70 | 0.846 | 7.92 | 0.985 | < 5.99
5637 (bladder, adherent) | 0.022 | > 7.70 | 0.793 | 5.39 | 0.21 | 6.71 | 0.977 | < 5.00 | 0.804 | 7.24 | 0.917 | < 5.59 | 0.972 | < 6.00 | 0.732 | 6.17 | 0.873 | 4.79 | 0.971 | < 5.70 | 0.298 | 9.65 | 0.976 | < 5.99
Hs939-T (melanoma, adherent) | 0.11 | > 7.70 | 0.933 | < 5.00 | 0.719 | 5.25 | 0.971 | < 5.00 | 0.966 | < 6.89 | 0.986 | < 5.59 | 0.985 | < 6.00 | 0.788 | 5.91 | 0.956 | < 4.70 | 0.96 | < 5.70 | 0.866 | < 7.90 | 0.983 | < 5.99
639-V (bladder, adherent) | 0.036 | > 7.70 | 0.882 | 5.10 | 0.647 | 5.53 | 0.884 | 5.10 | 0.946 | < 6.89 | 0.959 | < 5.59 | 0.911 | < 6.00 | 0.602 | 6.53 | 0.844 | 4.95 | 0.945 | < 5.70 | 0.623 | 8.79 | 0.985 | < 5.99
BT-483 (breast, adherent) | 0.273 | 7.40 | 0.893 | < 5.00 | 0.937 | < 4.70 | 0.977 | < 5.00 | 0.977 | < 6.89 | 0.955 | < 5.59 | 0.969 | < 6.00 | 0.845 | < 5.59 | 0.83 | < 4.70 | 0.975 | < 5.70 | 0.977 | < 7.90 | 0.977 | < 5.99
AU565 (breast, adherent) | 0.077 | > 7.70 | 0.816 | 5.20 | 0.381 | 6.25 | 0.935 | < 5.00 | 0.892 | < 6.89 | 0.964 | < 5.59 | – | – | 0.853 | 5.63 | 0.899 | < 4.70 | 0.866 | < 5.70 | 0.667 | 8.62 | 0.941 | < 5.99

— the supplement of paper PMC4967469
